According to the supplement of paper PMC10338343:
± gives the standard deviation. Whole data set: some 3,000 sequences, median “pre-steady-state target cleavage rate” near 0.0079, cut for the highest 2% near 0.2. The entries are a selection whose mix differs from that of the whole data set.

The sequences below were run on MILI (PIWIL2) piRISC loaded with piRNA #2 (26 nt) (assay: pre-steady-state target cleavage rate (min^-1); MIWI and MILI are mouse PIWI proteins and EfPiwi is from a freshwater sponge; tags in brackets are library labels; higher = faster piRNA-guided slicing of the target). Conditions: guide: piRNA #2 5'p-UUAGGUAACCCAGUAGAUCCAGAGGA; auxiliary factor: 500 nM mouse GTSF1.
Method in brief: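 Using HEPES–potassium acetate buffer at 33 °C, 1 nM active affinity-purified piRISC with a single synthetic guide was mixed with 0.1 nM transcribed, DNA-blocked target RNA library for 0–8 or 0–960 min, with or without 500 nM GTSF1 partner protein. Uncleaved targets were sequenced and normalised to depth and to weakly complementary targets, and three trials were pooled with k3 capped at 0.0001 min^-1. A burst-and-steady-state fit gave the pre-steady-state cleavage rate.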

Point of comparison: CUUAAGGUCUGAUCUACUGGGUUACCUAA, “pre-steady-state target cleavage rate” value 0.00931 ± 0.005. Against it:
- CUUAAGGUGUGGAUCUACUGGGUAACCUAA — within error, 0.0132 ± 0.0074
- CUUAACCUCUGGAUCUUCUGGGAUACCUAA — higher, 0.0362 ± 0.013
- CUUAAGGUCUGCAUCUACUGGGUUACCUAA — higher, 0.0733 ± 0.018
- CUUAACCUCUGGAUGUUCUGGGUUACCUAA — higher, 0.104 ± 0.021
- CUUAAGCUCUGGUUCUACUGGGUAACCUAA — higher, 0.0704 ± 0.022
- CUUAACUCUGGAUCUACUGGGUUACCUAA — higher, 0.0419 ± 0.016
- CUUAACCUCUGGAUCUUCUGCGUUACCUAA — within error, 0.0107 ± 0.0047
- CUUAAGGUCUGGAUCUACUAGGUUACCUAA — higher, 0.0507 ± 0.011
- CUUAAGCUCUGGAUCUUCUGCGUUACCUAA — within error, 0.00616 ± 0.0049
- CUUAAGGAGACCUAGAUGAGGCGUUACCUAA — lower, < 0.0001
- CUUAACCUCUGGAUCUACUAGGGUUACCUAA — within error, 0.0106 ± 0.0063
- CUUAUCCUCUGGAUCUACUGGGUUACCUGA — higher, 0.838 ± 0.37
- CUUAAGCACUGGAUCUACUGGGUUACCUUA — higher, 0.0828 ± 0.015
- CUUAAGGUCUGGAUCUACAGGGUUACCUUA — higher, 0.0369 ± 0.01
- CUUAACCUCUCGAUCUACUGGGUUACCUAA — higher, 0.138 ± 0.02
- CUUAAGGUGUGGAUCUACUGGGAUACCUAA — within error, 0.011 ± 0.008
- CUUAACCUCAGGAUCUACUGGGAUACCUAA — within error, 0.0226 ± 0.0094
- CUUAAGCUACUGGAUCUACUGGGUUACCUAA — higher, 0.0681 ± 0.02
- CUUAAGCUCAGGAUCUACUGGGUUACCUAA — higher, 0.0974 ± 0.019
- CUUAAGCACUGGAUCUACUGCGUUACCUAA — within error, 0.0136 ± 0.0047
- CUUAAGGACUGGAUCUAGUGGGUUAGCUAA — within error, 0.00844 ± 0.0048
- CUUAACCUCAGGAUCUACAGGGUUACCUAA — higher, 0.085 ± 0.014
- CUUAAGGUCUGGAUCUACUGGGUUACCCUAA — within error, 0.0141 ± 0.0067
- CUUAAGCUCUGGAUCUACUGGGUUCCCUAA — higher, 0.0477 ± 0.017
- CUUAAGGACUGGAUCUACAGGGUUACCAAA — higher, 0.0404 ± 0.0091
- CUUAUCCUCGGAUCUACUGGGUUACCUAA — higher, 0.0749 ± 0.03
- CUUAUCCUCUGGAUCUACUGGGUUACACUAA — higher, 0.158 ± 0.026
- CUUAAGCUCCUGGAUCUACUGGGUUACCUAA — higher, 0.0877 ± 0.027
- CUUAAGGAGUGAAUCUACUGGGUUACCUAA — within error, 0.0125 ± 0.0051
- CUUAAGCUCUGGAUCUACUGGGUUUACCUAA — higher, 0.0504 ± 0.012
- CUUAUCCUCUCGAUCUACAGGGUUACCUAA — higher, 0.141 ± 0.014
- CUUAACCACUGGAUCUACUGGGUUACCUUA — higher, 0.0763 ± 0.013
- CUUAACCUCUGGAACUACUGGGUUACGUAA — higher, 0.118 ± 0.051
- CUUAAGCUCAGGAUCUACAGGGUUACCUAA — higher, 0.0722 ± 0.013
- CUUAAGGAGACCUACUCACUGGGUUACCUAA — lower, < 0.0001
- CUUAAGGAGUGGAUCUACUGAGUUACCUAA — within error, 0.00781 ± 0.0066
- CUUAAGCACUGGAUCUACUGGGAUACCUAA — higher, 0.0251 ± 0.0085
- CUUAAGCUCUCGAUCUAGUGGGUUACCUAA — higher, 0.0939 ± 0.018
- CUUAUCCUAUGGAUCUACUGGGUUACCUAA — higher, 0.118 ± 0.012
- CUUAAGGAGACGCAUCUACUGGGUUACCUAA — within error, 0.0155 ± 0.0092
- CUUAACCUUUGGAUCUACUGGGUUACCUAA — higher, 0.112 ± 0.022
- CUUAAGCACUGGUUCUACUGGGUUACCUAA — higher, 0.199 ± 0.043
- CUUAACGUGUGGAUCUACUGGGUUACCUAA — higher, 0.0797 ± 0.018
- CUUAAGGACUGGAUCUACUGGGUUACCUAC [g2:g22:cont:t1C] — higher, 0.0392 ± 0.019
- CUUAUCCUCUCGAUCUAGUGGGUUACCUAA — higher, 0.127 ± 0.02
- CUUAUCCUGUGGAUCUACAGGGUUACCUAA — higher, 0.1 ± 0.012
- CUUAAGCUCUGGAUCUACUGGGUAACCUUA — higher, 0.0521 ± 0.016
- CUUAAGGUCUGGUUCUACAGGGUUACCUAA — higher, 0.0699 ± 0.01
- CUUAUCCUCUGCGAUCUACUGGGUUACCUAA — higher, 0.0876 ± 0.015
- CUUAUCCUCUGGCAUCUACUGGGUUACCUAA — higher, 2.56 ± 1.7
- CUUAAGCUGAGGAUCUACUGGGUUACCUAA — within error, 0.017 ± 0.0061
- CUUAAGGAGACGAUCUACUGGGAUACCUUA — lower, < 0.0001
- CUUAACCUCAGGAUCUACUGGGUAACCUAA — higher, 0.0373 ± 0.012
- CUUAAGGAGACCUACUUCAGGGUUACCUAA — lower, < 0.0001
- CUUAAGCUCUGGAUCUACUGGGAUACGUAA — within error, 0.0118 ± 0.0052
- CUUAACCUGUGGAUGUACUGGGUUACCUAA — higher, 0.0757 ± 0.024
- CUUAAGCUGUGGAUCUACUGGGUUACGUAA — within error, 0.00993 ± 0.0057
- CUUAAGCUCUGGAUCUACUGGGUUACCUAU [g2:g24:cont:t1U] — higher, 0.0526 ± 0.013
- CUUAACCUCUGGAUCUACUGGGUUACCAAA — higher, 0.119 ± 0.027
- CUUAAGCUGUGGAUCUACUGGGAUACCUAA — within error, 0.0121 ± 0.008
- CUUAAGGAGAGGAUCCACUGGGUUACCUAA — within error, 0.00829 ± 0.0031
- CUUAAGGACUGGAUGUACAGGGUUACCUAA — higher, 0.028 ± 0.013
- CUUAACCUCUGGAUCUAGUGCGUUACCUAA — within error, 0.00446 ± 0.0037
- CUUAAGCUCUGGAUCUACAGGGUUACCAAA — higher, 0.0444 ± 0.0094
- CUUAAGCUCUGGAUCUACUGGGUGACCUAA — higher, 0.0391 ± 0.0094
- CUUAAGGAGUGGAUCUACUGGGUUACCUAG [g2:g21:cont:t1G] — higher, 0.0456 ± 0.013
- CUUAUCCUGUGGAUCUACUGGGUUACCUUA — higher, 0.0682 ± 0.013
- CUUAAGGAGACCUAGAUGUGGGUGUACCUAA — lower, < 0.0001
- CUUAUCCUCAUGGAUCUACUGGGUUACCUAA — higher, 0.0555 ± 0.014
- CUUAAGGUCUGGAUCUACUGGGUUUCCUUA — within error, 0.0192 ± 0.0066
- CUUAAGGACUGGAUAUACUGGGUUACCUAA — higher, 0.0382 ± 0.018
